In all, about 110,000 compounds went through this assay and about 40 (0.04%) were called active. Inconclusive results, whose numbers are uncertain, are shown with a selection of clear calls. Calls come from the whole dose curve; as a rule, active = well fitted curve in the direction sought with a large enough effect in the signal ratio (not every such curve was filed as active); inconclusive = small, poorly fitted or top-dose-only effect, or a change in a side signal; inactive = flat fitted curve, though single readings scatter; the % refers to the signal ratio. Potencies of inconclusive entries are doubtful fits and often do not repeat.
Test: IkB Signaling;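 for IkBa stabilization activation: 0% = basal untreated cells and 100% = reference inhibitor full response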
Conditions: ABC-DLBCL IkBa-CBG/CBR dual luciferase ratio (green luciferase fused to IkBa over red control in OCI-Ly3 lymphoma cells), 4 h; IkBa stabilization activation: at 57.1 µM (top of the series), scaled: untreated 0%, proteasome inhibitor 100% unless noted
Source text: NIH Molecular Libraries Screening Centers Network [MLSCN]
NIH Chemical Genomics Center [NCGC]
Nuclear factor kappa-B (NF-kappa-B) plays an important role in normal B cell development and survival. Diffuse large B cell lymphoma (DLBCL) is the most commonly observed type of non-Hodgkin's lymphoma. Gene expression analysis has identified an activated B cell-like subtype of DLBCL (ABC-DLBCL) which expresses known NF-kappa-B target genes. […] However, targets upstream of IKK have been largely unexplored and so nodes upstream of IKK in the NF-kappa-B pathway remain untested due to the lack of chemical probes.
A cell-sensor assay for I-kappa-B-alpha stabilization was developed with NIH investigator Dr. R. Eric Davis in Dr. Louis M. Staudt's laboratory. The assay uses green (CBG68) and red (CBR) emitting beetle luciferases [Chroma-Glo(TM) developed by Promega Corp.] where the green luciferase is fused to I-kappa-B-alpha and the red luciferase is present in its native state. Both luciferase genes are stably present in the OCI-Ly3 human ABC DLBCL cell line, but their expression is under the control of tetracycline-inducible promoters. Following the addition of doxycycline to induce expression of the luciferases, the green luminescence in control cultures rises only slowly because the CBG fusion partner I-kappa-B-alpha is targeted by IKK activity for rapid degradation. In contrast, green luminescence rises rapidly in the presence of proteasome inhibitors or IKK inhibitors. The rise in red luminescence of CBR is not affected by proteasome or IKK inhibitors, and serves as normalization for cell number and nonspecific effects. Compounds were screened as a concentration-titration series that ranged from 57 uM to 0.7 nM.
NCGC Assay Protocol Summary:
Cells were seeded in 1536-well plates at 5000 cells/3ul in IMDM medium containing 0.5% FBS, w/o phenol red, L-glutamine, 25 mM HEPES, 3 mg/ml sodium bicarbonate. After centrifugation for 1 min. at 1000 rpm, 23 nl of compounds or DMSO were delivered to each well using a pin tool. Then 1ul 80ng/ml doxycycline was dispensed into white solid 1536-well plates and the plates were incubated at 37C/5% C02 in a cell incubator for 4 hrs. Then 4 ul Chroma-Glo luminescent substrate mix (Promega) was added to each well. The plate was incubated at R.T. for 10-15 min. The plates were measured on a ViewLux plate reader for green luminescence (540/20 nm filter) and red luminescence (618/8 nm filter). The green and red luminescent signals were corrected for red and green luminescence filter overlap using previously determined filter calibration constants (determined using the procedure outlined in the Promega Technical Manual). The %Activity was determined from the ratio of corrected green/red luminescent values. Green luminescent and ratio %Activity was determined by normalizing to the difference in signal between basal cells (0% Activity) and cells incubated with 10 uM of the proteasome inhibitor MG-132 (100% Activity). Red luminescent %Activity was normalized to the difference between red luminesence in basal cells (0%Activity) and zero luminescence (-100% Activity).
Concentration-response curves were fitted to the signals arising from the green luminescence (I-kappa-B-alpha-luciferase fusion; IkB-luc) and the red luminescence (unfused luciferase; luc) as well as the calculated ratio. The concentration-effect curves were then classified based on curve quality (r2), response magnitude and degree of measured activity. Compounds were then categorized based on their concentration-response curves for all three datasets (Ikb-luc, luc and ratio).
Keywords: IKK, I-kappa-B, IkB, IkBa, cytotoxicity, luminescence, MLSMR, MLSCN, NIH Roadmap, qHTS, NCGC
Potency is the fitted concentration of half-maximal effect.

SMILES	IkBa stabilization activation	Potency
Cc1cccc(N2CCN(C(=O)Nc3ccc(F)cc3)CC2C)c1 (centres undefined)	inconclusive: -0.998% [signal inhibitor]	–
Cc1ccccc1NC(=O)Nc1nnc(N(C)Cc2ccccc2)s1	inconclusive: -1.4% [signal inhibitor]	–
O=c1[nH]c2c(s1)C(c1ccccc1)C1C3CCC(C3)C1S2 (centres undefined)	inconclusive: 8.12% [signal inhibitor]	–
Cc1ccc(N2CCN(C(=O)c3nn(C)c4c3CS(=O)(=O)c3ccccc3-4)CC2C)cc1 (centres undefined)	inconclusive: 2.8% [signal inhibitor]	–
O=C(c1cnn(-c2nc3ccccc3s2)c1)c1ccccc1O	inconclusive: 2.84% [signal inhibitor]	–
COc1ccc(-n2cc3c(c2-c2cccc(Br)c2)c(=O)n(C)c(=O)n3C)cc1OC	inconclusive: -1.13% [signal inhibitor]	–
Cc1c(N=C/C=C/c2ccccc2)c(=O)n(-c2ccccc2)n1C	inactive: 0.151%	–
COc1cccc(NC(=O)Cn2c(=O)n(Cc3ccccc3)c(=O)c3c4c(sc32)CN(C(C)=O)CC4)c1	inconclusive: 1.52% [signal inhibitor]	–
CCCCc1ccc(NC(=O)Cn2cnc3c2c(=O)n(C)c(=O)n3C)cc1	inconclusive: 9.22% [signal inhibitor]	–
COC(=O)c1ccccc1NC(=O)c1nc(SCc2ccccc2C)ncc1Cl	inactive: 0.00935%	–
CN(C)c1ncc2nc(-c3ccccc3)c(=O)n(CCC#N)c2n1	inactive: -1.85% [at 11.4 µM, scaled: untreated 0%, proteasome inhibitor 100%]	–
CC(=O)c1ccc(NC(=O)c2cc3sccc3n2Cc2ccc(Cl)cc2)cc1	inconclusive: -0.515% [signal inhibitor]	–
Cc1ccc(N(CC(=O)NCCSc2ccccc2)S(=O)(=O)c2ccc(F)cc2)cc1	inconclusive: 10% [signal inhibitor]	–
O=C(COc1ccc(Cl)cc1)NCC(c1ccco1)S(=O)(=O)c1ccc(F)cc1 (centres undefined)	inconclusive: 3.23% [signal inhibitor]	–
COc1ccc(CNC(=O)c2cc3cccc4c3n2CC(C)S4)cc1OC (centres undefined)	inconclusive: 1.41% [signal inhibitor]	–
Cc1ccc(CNS(=O)(=O)c2ccc3[nH]c4c(c3c2)CCCCC4)cc1	inconclusive: 0.709% [signal inhibitor]	–
Cc1ccc(C)n1-n1c(C)nc2sc(-c3ccccc3)cc2c1=O	inconclusive: 1.84% [signal inhibitor]	–
Cc1cccc(NC(=O)C2CCCN(S(=O)(=O)c3ccc4c(c3)CCCC(=O)N4)C2)c1 (centres undefined)	inconclusive: 10.3% [signal inhibitor]	–
COc1ccc(Cl)cc1NC(=O)Cn1nc(C(F)(F)F)c2c1CCCC2	inconclusive: 10.4% [signal inhibitor]	–
COc1cccc(Nc2nc3c(S(=O)(=O)c4cc(C)ccc4C)nnn3c3ccsc23)c1	inactive: 0.593%	–
CCOC(=O)C1CCCN(c2ncnc3c2[nH]c2cccc(OC)c23)C1 (centres undefined)	inactive: -2.08%	–
CC(C)c1ccc2c(c1)c(SC(C)(C)C)c(CC(C)(C)C(=O)O)n2Cc1ccc(Cl)cc1	inconclusive: 0.575% [signal inhibitor]	–
Cc1cc(C)c(NC(=O)CSC2=Nc3ccccc3C3=NC(CC(=O)NCc4cccs4)C(=O)N23)c(C)c1 (centres undefined)	inconclusive: -1.22% [signal inhibitor]	–

SMILES	IkBa stabilization activation	Potency
COc1ccc(C)cc1-n1nnc(S(=O)(=O)c2ccc(C)cc2)c1C	inconclusive: 2.18% [signal inhibitor]	–
COc1ccc2c(C)c(CCC(=O)NCc3ccccc3OC)c(=O)oc2c1	inactive: 0.111%	–
COc1ccc(CNc2oc(/C=C/c3cc(OC)c(OC)c(OC)c3)nc2C#N)cc1	inconclusive: 4.87% [signal inhibitor]	–
Cc1nn(-c2ccccc2)c2[nH]c(=O)c(CNc3ccc4c(c3)OCCO4)cc12	inconclusive: 6.91% [signal inhibitor]	–
CC1CCCCN1C(=O)CSc1nc2ccsc2c(=O)n1Cc1ccccn1 (centres undefined)	inactive: -0.521%	–
Cc1cccn2c(=O)c(C(=O)NC(C)c3ccccc3)c(O)nc12 (centres undefined)	inconclusive: 4.39% [signal inhibitor]	–
Cc1cc(C)n2nc(NCc3cccc(Br)c3)nc2n1	inactive: 6.27%	–
O=C(Nc1sc2c(c1C(=O)NCC1CCCO1)CCC2)c1cc(=O)c2cc(Cl)ccc2o1 (centres undefined)	inactive: -0.821%	–
Cc1sc2ncnc(-n3cnc4ccccc43)c2c1C	inconclusive: 2.2% [signal inhibitor]	–
CCOC(=O)c1cc(-c2ccccc2)n(CC(=O)Nc2ccccc2OCC)c1C	inactive: -0.559%	–
Cn1nnnc1SCCCNCc1cc(Br)ccc1OCc1ccccc1F	inactive: -1.81%	–
CCOC(=O)c1cnc(-n2nc(C)cc2C)nc1NC	inactive: -2.12%	–
Fc1ccc(-c2csc(=Nc3cccc(C(F)(F)F)c3)n2Cc2ccc3c(c2)OCO3)cc1	inconclusive: -3.27% [signal inhibitor]	–
COc1ccc(-c2nc(CCNC(=O)c3ccccc3)cs2)cc1OC	inactive: -0.167%	–
Cc1cccc(C)c1NC(=O)CCCn1c(=O)c2cccn2c2ccccc21	inconclusive: 0.579% [signal inhibitor]	–
Cc1ccc(Cl)cc1-n1ncc2c(Nc3ccc4c(c3)OCCO4)ncnc21	inconclusive: 1.52% [signal inhibitor]	–
CCc1ccc(NC(=O)c2ccc(Cn3nc(N4CCN(c5ccccc5)CC4)ccc3=O)o2)cc1	inconclusive: 2.13% [signal inhibitor]	–
O=C(c1ccc2c(c1)N(Cc1c(F)cccc1Cl)C(=O)c1ccccc1S2)N1CCCC1	inconclusive: -1.97% [signal inhibitor]	–
Cc1ccnc(Nc2nc3ccccc3o2)n1	–	inconclusive: 20 µM [signal inhibitor, single point]
CC(=O)N1CCCC1c1nc2ccccc2n1Cc1ccc(F)cc1 (centres undefined)	inconclusive: 3.06% [signal inhibitor]	–
CCC(C)c1ccccc1OCC(=O)Nc1ccc(S(=O)(=O)Nc2cc(C)on2)cc1 (centres undefined)	inconclusive: -1.08% [signal inhibitor]	–
COc1cc(NS(=O)(=O)c2c(C(=O)N3CCCCC3)c(C)n(C)c2C)cc(OC)c1OC	inactive: 1.77%	–
Cc1nn(-c2nc3ccccc3s2)c(C)c1Oc1ccccc1O	inconclusive: -0.862% [signal inhibitor]	–

SMILES	IkBa stabilization activation	Potency
O=C(Nc1cc(C(F)(F)F)ccc1N1CCOCC1)C1Cc2ccccc2CN1C(=O)c1ccco1 (centres undefined)	inconclusive: 2.83% [signal inhibitor]	–
COc1cc(NS(=O)(=O)c2ccc(Br)cc2)c(OC)cc1NC(=O)c1ccco1	inconclusive: 3.87% [signal inhibitor]	–
Cc1ccc(NC(=O)Cn2c(=O)n(CCC(C)C)c(=O)c3cccnc32)cc1C	inconclusive: -2.17% [signal inhibitor]	–
CCC(C(=O)NCCC(C)C)N(C(=O)Cn1nnc(-c2ccc(C)cc2)n1)c1cccc(O)c1 (centres undefined)	inconclusive: 1.25% [signal inhibitor]	–
COc1ccc(Cl)cc1NC(=O)Cn1c(=O)n(Cc2ccc(F)cc2)c(=O)c2cccnc21	inconclusive: 1.37% [signal inhibitor]	–
CC1CN(C(=O)N2CCC(C(=O)NCc3ccccc3F)CC2)c2cc(Cl)ccc2O1 (centres undefined)	inconclusive: 0.203% [signal inhibitor]	–
COc1ccccc1N1CCN(C(=O)Cn2c(=O)nc(-c3ccccc3)c3ccccc32)CC1	inconclusive: 0.309% [signal inhibitor]	–
O=C(O)c1cccc(OCc2ccccc2Cl)c1	inconclusive: 17.4% [signal inhibitor]	–
O=C(CCC1COc2ccccc2O1)Nc1ccc(Cl)cn1 (centres undefined)	inconclusive: -3.36% [signal inhibitor]	–
Oc1ccccc1-c1nc(NCC2CCCO2)c2ccccc2n1 (centres undefined)	inconclusive: -9.84% [signal inhibitor]	–
CCOC(=O)c1cccc(NC(=O)c2cc(C)nc3c2c(C)nn3-c2ccc(C)cc2)c1	inconclusive: 0.343% [signal inhibitor]	–
COc1ccc(-c2onc(C)c2-c2ccc(C(=O)OC(C)C)o2)c(O)c1	inconclusive: 1.76% [signal inhibitor]	–
CCc1ccc(-c2nc(CN3CCC(C(=O)NCCN(CC)c4ccccc4)CC3)c(C)o2)cc1	inactive: 1.23%	–
Clc1ccc(NCc2nncn2-c2ccccc2)cc1	inconclusive: 5.85% [signal inhibitor]	–
CC(C)CN1CCCC2(CCN(C(=O)c3cnccn3)CC2)C1	inactive: -0.477% [at 11.4 µM, scaled: untreated 0%, proteasome inhibitor 100%]	–
CCc1ccccc1S(=O)(=O)Cc1ccc(C(=O)N2CCN(c3ccccc3OC)CC2)o1	inconclusive: 10.8% [signal inhibitor]	–
Cc1cc(C)cc(NC(=O)C(=O)NCC(c2cccnc2)N2CCOCC2)c1 (centres undefined)	inconclusive: -2.05% [signal inhibitor]	–
COc1ccc(S(=O)(=O)Nc2cccc(-c3ccc(N4CCCCC4)nn3)c2)cc1F	inactive: -0.522%	–
COc1cccc(NC(=O)N2CCN(c3cccc(C)c3C)CC2)c1	inconclusive: 7.87% [signal inhibitor]	–
CSc1nc(N)c2ncn([C@@H]3O[C@@H](COP(=O)(O)OP(=O)(O)O)[C@@H](O)[C@H]3O)c2n1	inactive: -3.05%	–
CN1C(=O)c2ccccc2Sc2ccc(NC(=O)N3CCN(c4ccc(F)cc4)CC3)cc21	inconclusive: -3.31% [signal inhibitor]	–
O=C(CN1CCN(c2ccccn2)CC1)N(c1ccccc1)c1ccc2ccccc2c1	inconclusive: 13.8% [signal inhibitor]	–
Cc1cccc(NC(=O)c2ccccc2C(=O)O)c1	inactive: 4.34%	–
